# Laboratory results as given in PubChem BioAssay AID1878 (Sanford-Burnham Center for Chemical Genomics, 2009).
# The whole screen tested about 1,000 compounds, of which about 200 (20%) were called active. Cut-off read from the data, not from the text of the source: active = inhibition above about 55%; inactive = the rest. This is a selection; strong and weak results do not stand in their true shares. Entries with a potency or affinity are not part of this list.
# Biological target: Dual specificity protein phosphatase 3 (Homo sapiens) (UniProt P51452)
# Experiment: VHR1 phosphatase inhibitors, biochemical (AID 1878)
# Conditions: recombinant VHR phosphatase, fluorogenic substrate; at 13.3 µM; stronger effect = higher value
# Chain of UniProt P51452 (P51452 whole entry, looked up): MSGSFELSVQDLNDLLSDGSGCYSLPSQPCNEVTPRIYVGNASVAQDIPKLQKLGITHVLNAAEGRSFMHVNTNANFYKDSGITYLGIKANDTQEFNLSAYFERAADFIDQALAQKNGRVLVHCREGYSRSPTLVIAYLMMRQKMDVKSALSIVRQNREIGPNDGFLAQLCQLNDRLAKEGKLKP
row,Structure (SMILES),inhibition
1,Cc1ccc(CNc2ccc(N3CCOCC3)c(Cl)c2)cc1,inactive: 8%
2,Cc1cc(OC(C)C(=O)NC2CC(C)(C)NC(C)(C)C2)c2c(C)cc(=O)oc2c1 (configuration not stated),inactive: -0.6%
3,COCCCNC(=S)N(CCN(C)C)Cc1cc2cc3c(cc2[nH]c1=O)OCCO3,inactive: -7.7%
4,O=S(=O)(Nc1ccc2ccccc2n1)c1ccccc1Cl,inactive: 3.5%
5,CCC1CCCCN1CCCNC(=O)c1ccc2c(c1)NC(=O)CN2C (configuration not stated),inactive: -26.5%
6,CN1CCN(Cc2cn(C)c3ccccc23)CC1CCO (configuration not stated),inactive: -8%
7,O=C(Nc1nnc(SCc2c(Cl)cccc2Cl)s1)c1ccc2ncsc2c1,active: 66.9%
8,CCN(CC)CCCNC(=O)CCn1nc(-c2ccc(Cl)cc2)ccc1=O,inactive: 18.8%
9,CCOc1ccc(Br)cc1S(=O)(=O)NC1CC(C)(C)NC(C)(C)C1,inactive: -2.1%
10,O=C1NC(=S)S/C1=C\c1ccc(SCc2ccco2)o1,inactive: 40.9%
11,O=C(COc1cc2oc(=O)c3c(c2cc1Cl)CCC3)NCCCN1CCOCC1,inactive: -6.6%
12,Cc1cc(C(=O)NC2CCCc3c2cnn3-c2cccc(C)c2C)c(C)o1 (configuration not stated),inactive: -5.2%
13,CCOc1ccccc1CNS(=O)(=O)c1cc(-c2cc(C)no2)ccc1C,inactive: 12.3%
14,O=C(O)c1c2c(nc3ccccc13)/C(=C/c1ccc(O)cc1)CC2,inactive: 44.4%
15,CCOc1ccc(S(=O)(=O)NCCCn2ccnc2)cc1NC(C)=O,inactive: 2.2%
16,CCOc1ccc(NC(=O)[C@H](C)NC(=O)C2CC(=O)N(c3ccc(OC)cc3)C2)cc1 (some centres not stated),inactive: 18%
17,OC(CNCc1ccc(Cl)c(Cl)c1)c1ccccc1 (configuration not stated),inactive: -14.3%
18,COc1ccc(Cn2c(-c3ccc(C)cc3)nc3c(c(=O)c4ccccc4n3C)c2=O)cc1,active: 85.9%
19,O=C(Nc1cc([N+](=O)[O-])ccc1O)c1cccc(C(=O)Nc2cc([N+](=O)[O-])ccc2O)c1,active: 98.4%
20,O=C(NCc1ccc(F)cc1)C1CCN(S(=O)(=O)c2cccc3nonc23)CC1,inactive: 4.8%
21,Cc1cccc(S(=O)(=O)N2CCCc3ccccc32)c1,inactive: 6.7%
22,CSCCNC(=O)c1ccc2nc(Cc3ccccc3F)oc2c1,inactive: -8.6%
23,CCN(CC)CCNC(=O)Cn1cnc2sc(C)c(S(=O)(=O)N3CC(C)CC(C)C3)c2c1=O (configuration not stated),inactive: -8.4%
24,Oc1ccc(N=Cc2c(O)ccc3ccccc23)cc1,inactive: 13.1%
25,CC(=O)Oc1ccc2c(c1)C(=O)c1ccccc1C2=O,inactive: 14%
26,CCCCC(=O)Nc1ccccc1N1CCN(c2ccc(F)cc2)CC1,inactive: -6.4%
27,Cc1cc(-c2ccccc2)nc(N/N=C/c2ccccc2F)n1,inactive: -3.9%
